Legend:
Type in all cases: cell-based
Conditions in all cases: 24 hour pre-treatment, concentration of 10^−8 molar and above
[1] = system: phosphorylated ErbB3 in BT474 breast cancer cells; test: pErbB3 ELISA in BT474 cells after HRG stimulation
Protocol: (§1) Except as noted, ELISA reagents for total and phospho-ErbB3 ELISAs are purchased from R&D Systems as DUOSET kits. 96-well NUNC MAXISORB plates are coated with 50 μl of an antibody and incubated overnight at room temperature. Next morning, plates are washed 3 times with 1000 μl/well in a BIOTEK plate washer with Dulbecco's phosphate buffered saline without calcium or magnesium (PBS) with added Tween detergent (PBST) (0.05% Tween-20). […] The plates are washed 3 times with 1000 μl/well in the BIOTEK plate washer with PBST. Cells are grown at 37° C. and 5% carbon dioxide, washed with cold PBS, then harvested with mammalian protein extract (MPER) lysis buffer (Pierce, 78505) to which 150 mM NaCl, 5 mM sodium pyrophosphate, 10 uM bpV (phen), 50uM phenylarsine, 1 mM sodium orthovanadate, and protease inhibitor cocktail (Sigma, P2714) is added. 50 μL of cell lysates and standards diluted in 50% Lysis buffer and 1% BSA are used in duplicates for further processing. Samples are incubated for 2hrs at 4° C. on a plate shaker and washed as before. About 50 μl of a detection antibody diluted in 2% BSA, PBST is added and incubated for about 1-2 hrs at room temperature. […] About 50 μL of SUPERSIGNAL ELISA Pico (Thermo Scientific) substrate is added and the plate is read using a FUSION plate reader. […]

[2] = system: phosphorylated AKT in BT474 breast cancer cells; test: pAKT ELISA in BT474 cells after HRG stimulation
Protocol: as §1

[3] = system: phosphorylated ERK in BT474 breast cancer cells; test: pERK ELISA in BT474 cells after HRG stimulation
Protocol: as §1

B1: B1B2-1: HSA linker conjugate tested in Example 5; probably B1D2-1 (H3-HSA-B1D2), i.e. B2B3-1 (protein)
chain: QVQLQESGGGLVKPGGSLRLSCAASGFTFSSYWMSWVRQAPGKGLEWVANINRDGSASYYVDSVKGRFTISRDDAKNSLYLQMNSLRAEDTAVYYCARDRGVGYFDLWGRGTLVTVSSASTGGGGSGGGGSGGGGSQSALTQPASVSGSPGQSITISCTGTSSDVGGYNFVSWYQQHPGKAPKLMIYDVSDRPSGVSDRFSGSKSGNTASLIISGLQADDEADYYCSSYGSSSTHVIFGGGTKVTVLGAAS[about 600 residues omitted here]AAALQVQLVQSGAEVKKPGESLKISCKGSGYSFTSYWIAWVRQMPGKGLEYMGLIYPGDSDTKYSPSFQGQVTISVDKSVSTAYLQWSSLKPSDSAVYFCARHDVGYCTDRTCAKWPEWLGVWGQGTLVTVSSGGGGSSGGGSGGGGSQSVLTQPPSVSAAPGQKVTISCSGSSSNIGNNYVSWYQQLPGTAPKLLIYDHTNRPAGVPDRFSGSKSGTSASLAISGFRSEDEADYYCASWDYTLSGWVFGGGTKLTVLG
greater than 50%: inhibition of HRG-induced phosphorylation of ErbB3 [1] | inhibition of HRG-induced phosphorylation of AKT [2] | inhibition of HRG-induced phosphorylation of ERK [3]

Reference: patent US20110059076A1, “HUMAN SERUM ALBUMIN LINKERS AND CONJUGATES THEREOF” (priority 2008, published 2011)
